# The supplement of paper PMC10126150
# Sequences with one replicate were seen in a single cluster, so their values are uncertain.
# System: ATP
# Assay: switch fluorescence ratio, 500 uM ATP over buffer (Cy3 cluster intensity, sum of 5 cycles each) (fold (ratio)); higher = stronger signal-on switching upon ATP binding; sequences stand for … in TCGTCGGCAGCGTCAGATGTGTATAAGAGACAGTTTTTTTTTTTTTTTTTTTTTTTTT…TC
# Settings: aptamer strand: ATP DNA aptamer (quencher-CACCTGGGGGAGTATTGCGGAGGAAGG + anchor), 100 nM annealed; ATP concentration: 500 uM; one replicate
# Procedure, shortened: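 Values give the fluorescence ratio for each switch-domain sequence, averaged from per-cluster ratios of summed target-cycle to summed buffer-cycle Cy3 intensity. The Cy3-labelled switching-strand clusters sat on a modified Illumina MiSeq flow-cell, were annealed to 100 nM quencher-labelled ATP aptamer, and were imaged in selection buffer, then after 15 min with 500 uM ATP at 22 °C. Five cycles ran with NaOH stripping and re-annealing between them, and clusters outside 100-1000 RFU were excluded.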
# 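Note: ATP exposure 15 min at 22 °C before imaging.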
row,Sequence,switch fluorescence ratio
1,GATGCTGAGG,1.02
2,GATGCTTGAA,1.08
3,GATGGAATAG,1.47
4,GATGGAATGT,1.01
5,GATGGAGGAC,1.02
6,GATGGATAAC,1
7,GATGGATTTC,0.944
8,GATGGCCCAT,1.05
9,GATGGCGCTT,0.962
10,GATGTAAATG,0.973
11,GATGTAAGCG,1.03
12,GATGTAAGTC,0.979
13,GATGTATCTA,0.977
14,GATGTATTCA,1.05
15,GATGTCCTAT,0.993
16,GATGTCCTTG,0.974
17,GATGTCTGGA,0.998
18,GATGTGACGG,0.999
19,GATGTTATGG,1.04
20,GATGTTCTTT,0.978
21,GATGTTGACC,0.991
22,GATGTTGGCT,1.05
23,GATGTTGGT,1.01
24,GATTAAAAGC,1.06
25,GATTAAAGTG,0.976
26,GATTAGGTT,1.05

row,Sequence,switch fluorescence ratio
1,GATTAGTAGT,0.996
2,GATTAGTCT,0.97
3,GATTAGTTAT,0.952
4,GATTATCAAA,0.996
5,GATTATTGA,1.02
6,GATTCAATAT,1.09
7,GATTCAGCAG,1.02
8,GATTCCGATG,1.39
9,GATTCCGGCA,0.99
10,GATTCCTGCT,0.957
11,GATTCGCAGA,1.08
12,GATTCGTGGT,0.945
13,GATTCTCGGT,1.01
14,GATTGATCGG,0.998
15,GATTGCCGTC,1.02
16,GATTGCGAAT,1.02
17,GATTGGCATG,0.973
18,GATTGTTTCA,0.985
19,GATTTAACAT,0.997
20,GATTTAACCC,1
21,GATTTAACTC,1.01
22,GATTTACATC,1.04
23,GATTTACGGC,1.05
24,GATTTACGTT,1.01
25,GATTTAGTCG,1.01
26,GATTTGCGG,1.04

row,Sequence,switch fluorescence ratio
1,GATTTGGTGC,0.93
2,GATTTTAAG,0.955
3,GATTTTATGA,1.02
4,GATTTTCGGG,0.991
5,GATTTTGGAA,0.975
6,GCAAAACTTT,1.02
7,GCAAAATGAC,1.01
8,GCAAAGCCCT,0.99
9,GCAAAGTTGA,1.08
10,GCAAATACA,1.07
11,GCAAATCAGG,1.02
12,GCAAATCGGC,0.99
13,GCAACCGGTT,1
14,GCAAGACAGC,1.4
15,GCAAGACCCG,1.2
16,GCAAGGGACT,1.02
17,GCAAGGGCTG,0.973
18,GCAAGTAGGC,1.01
19,GCAAGTCTCT,1.05
20,GCAATAGTAG,1.41
21,GCAATCTGCA,1.02
22,GCAATGCTA,1.82
23,GCAATGTGCG,1.02
24,GCAATTACTT,1.64
25,GCACAAATCT,1.03
26,GCACAAGCCC,1.09

row,Sequence,switch fluorescence ratio
1,GCACACCGCG,1.11
2,GCACACTAAT,1.08
3,GCACGAGGAC,0.965
4,GCACGCATTT,1.12
5,GCACGCGAGG,1.06
6,GCACGCGCT,1.09
7,GCACGCGGGC,0.992
8,GCACGGAGAG,1.07
9,GCACGGAGTT,1.01
10,GCACGGGATT,1.08
11,GCACGGGCGC,1.07
12,GCACGGTATC,1.11
13,GCACGGTGAA,1.05
14,GCACGTAGGG,0.995
15,GCACGTCTCT,1.12
16,GCACGTGGGT,1.06
17,GCACTAGCAT,1.03
18,GCACTAGGTG,1.4
19,GCACTCCGGG,1.06
20,GCACTCGCTG,1
21,GCACTCTGTG,0.989
22,GCACTGGGTC,0.995
23,GCACTGTTCC,1.12
24,GCAGAAGCGG,0.994
25,GCAGACCGTG,1.02
26,GCAGATACGT,1.21

row,Sequence,switch fluorescence ratio
1,GCAGCGAAGG,1.02
2,GCAGCGTGTA,1.01
3,GCAGCTGGAG,1.02
4,GCAGCTTAAC,2.72
5,GCAGGACGTG,1.03
6,GCAGGCACGA,1.07
7,GCAGGCCTCT,0.956
8,GCAGGGAGAC,1.11
9,GCAGGGGTAC,1.12
10,GCAGGGGTGA,1.03
11,GCAGGGTTGA,0.996
12,GCAGGTCTAC,1.05
13,GCAGGTTGTT,1.02
14,GCAGTAAACG,1.06
15,GCAGTAGATT,1.01
16,GCAGTAGGAT,0.982
17,GCAGTAGGTT,0.982
18,GCAGTATTAC,1.82
19,GCAGTCCGCA,2.45
20,GCAGTGAAAT,1.04
21,GCAGTGAGAC,3.69
22,GCAGTGTACA,1.05
23,GCAGTTTGG,1.02
24,GCAGTTTTGA,0.997
25,GCATAAAGGT,0.978
26,GCATAAGCCC,1.05

row,Sequence,switch fluorescence ratio
1,GCATAATTG,1.01
2,GCATACTGG,1.09
3,GCATAGAGTG,1.02
4,GCATATGGAA,1.02
5,GCATATGTGT,0.974
6,GCATATGTTG,0.999
7,GCATCAACCC,1.04
8,GCATCACATT,0.986
9,GCATCAGATG,0.982
10,GCATCCCACC,1.12
11,GCATCCG,0.989
12,GCATCGAACG,1.03
13,GCATCGTGGT,1.02
14,GCATCGTGTT,0.995
15,GCATGAATTC,0.975
16,GCATGAGGTT,1.05
17,GCATGCAAGA,0.986
18,GCATGCAGGT,1.02
19,GCATGCCTTG,1.01
20,GCATGCGATT,1
21,GCATGGGACT,1.03
22,GCATGGGATT,0.974
23,GCATGGTCAC,1.01
24,GCATGTAAAT,1
25,GCATGTGCTC,1.12
26,GCATTACCGC,1.16

row,Sequence,switch fluorescence ratio
1,GCATTATGTA,1.03
2,GCATTCCAAC,1.1
3,GCATTGAACG,0.992
4,GCATTGACCC,1.21
5,GCATTGGGCG,1.01
6,GCATTGTAGT,0.995
7,GCATTTAAAC,1.04
8,GCATTTGCGG,0.936
9,GCATTTGCT,1.06
10,GCATTTGGAT,0.992
11,GCATTTGGCA,1.09
12,GCATTTGTCG,1.01
13,GCATTTTATC,1.02
14,GCCAAAAGCA,1.05
15,GCCAAACCAG,0.958
16,GCCAATCTTC,1.02
17,GCCAATTAA,0.997
18,GCCACAGCGC,0.993
19,GCCACCAGCC,1.07
20,GCCACCTAGG,1.05
21,GCCACGACAA,1.13
22,GCCACGGGCC,0.996
23,GCCACTTGTG,0.919
24,GCCAGCCCTG,1.04
25,GCCAGTATAC,1.26
26,GCCATAAATG,1.01

row,Sequence,switch fluorescence ratio
1,GCCATATCGA,1
2,GCCATATTAG,1.02
3,GCCATCAGC,1.03
4,GCCATCCGGC,1
5,GCCATGAACG,1.07
6,GCCATGAGGG,1.03
7,GCCATGCGCG,0.986
8,GCCATGGACT,1.03
9,GCCATTATGG,1.01
10,GCCATTCTCA,1
11,GCCCAAGCT,1.03
12,GCCCACCGTG,1.14
13,GCCCACGCAC,1.76
14,GCCCAGGATT,1.15
15,GCCCATAGTG,1.25
16,GCCCATGTAT,0.937
17,GCCCCATGA,1.03
18,GCCCCGGTAT,1.01
19,GCCCCTGAGA,1.08
